The source of these data is patent publication CN115028722A (BIOCELLS BEIJING BIOTECH CO LTD, dated 2022).

The target of the assay is T1, hTSLPR/hIL-7Rα-293T/17细胞 (293T/17 cells stably expressing human TSLPR and human IL-7Rα) (human, UniProt Q9HC73 23-371; P16871 21-459).
T1 sequence 1: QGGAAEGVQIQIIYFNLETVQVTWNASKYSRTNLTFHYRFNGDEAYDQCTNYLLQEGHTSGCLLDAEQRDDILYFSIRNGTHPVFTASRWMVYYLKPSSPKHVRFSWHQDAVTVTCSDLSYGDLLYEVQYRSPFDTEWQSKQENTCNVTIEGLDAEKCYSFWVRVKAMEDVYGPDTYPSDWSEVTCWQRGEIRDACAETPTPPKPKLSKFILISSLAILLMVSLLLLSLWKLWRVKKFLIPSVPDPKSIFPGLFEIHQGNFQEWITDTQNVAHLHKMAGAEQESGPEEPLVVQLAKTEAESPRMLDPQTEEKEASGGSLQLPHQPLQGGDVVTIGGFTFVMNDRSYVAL
T1 sequence 2: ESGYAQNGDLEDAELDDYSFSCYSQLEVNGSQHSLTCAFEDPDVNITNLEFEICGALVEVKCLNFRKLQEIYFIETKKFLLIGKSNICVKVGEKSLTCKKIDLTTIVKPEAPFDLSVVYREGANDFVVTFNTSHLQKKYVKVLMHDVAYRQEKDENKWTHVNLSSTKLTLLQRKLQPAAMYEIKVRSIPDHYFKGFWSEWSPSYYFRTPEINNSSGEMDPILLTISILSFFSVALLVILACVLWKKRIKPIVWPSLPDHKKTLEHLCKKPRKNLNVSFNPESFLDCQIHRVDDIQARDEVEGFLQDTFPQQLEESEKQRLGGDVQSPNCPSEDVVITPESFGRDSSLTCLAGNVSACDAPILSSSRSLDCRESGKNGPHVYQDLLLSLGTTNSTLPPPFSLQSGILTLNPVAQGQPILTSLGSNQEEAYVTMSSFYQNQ
Briefly: cell ELISA: rhTSLP-His serially diluted from 1 μg/ml on hTSLPR/hIL-7Rα-293T/17 cells, anti-His-HRP, OD450. For orientation: In an ELISA, binding on a coated surface is turned into a signal by an enzyme label.

B1: 包含有His标签的重组人源TSLP蛋白(rhTSLP-His) (ligand)
chain: not shown
notes: also called rhTSLP-His重组蛋白; rhTSLP-His蛋白
As to B1, the binding result was “binds”.
